Test results: the supplement of paper PMC8728848
This is one part of the list.

How the values were obtained:
Test in all cases: glycan array binding signal (z-score within array); higher = stronger binding
Conditions in all cases: glycan notation: IUPAC condensed, linker removed
[1] = target: Man(a1-3)[Man(a1-6)]Man(a1-6)[Man(a1-2)Man(a1-3)]Man(b1-4)GlcNAc(b1-4)GlcNAc
How it was run: (§1)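 Columns mapping to the same glycan were averaged after glycan names were converted to IUPAC-condensed notation. The data come from 3228 arrays in the Consortium for Functional Glycomics database, limited to those with an available protein sequence. Binding is reported as a within-array Z-score averaged across arrays of one protein sequence and across linkers.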

[2] = target: Man(a1-3)[Man(a1-6)]Man(a1-6)[Man(a1-3)]Man
How it was run: as §1

[3] = target: Man(a1-3)[Man(a1-6)]Man(a1-6)[Man(a1-3)]Man(b1-4)GlcNAc(b1-4)GlcNAc
How it was run: as §1

[4] = target: Man(a1-3)[Man(a1-6)]Man(b1-4)GlcNAc(b1-4)GlcNAc
How it was run: as §1

[5] = target: Man(a1-3)[Man(a1-6)]Man(b1-4)GlcNAc(b1-4)[Fuc(a1-6)]GlcNAc
How it was run: as §1

Man(a1-6)Man = target: Man(a1-6)Man
How it was run: as §1

Man(b1-4)GlcNAc = target: Man(b1-4)GlcNAc
How it was run: as §1

MurNAc(b1-4)GlcNAc = target: MurNAc(b1-4)GlcNAc
How it was run: as §1

Neu5Ac(a2-3)Gal = target: Neu5Ac(a2-3)Gal
How it was run: as §1

[6] = target: Neu5Ac(a2-3)Gal(b1-3)GalNAc
How it was run: as §1

[7] = target: Neu5Ac(a2-3)Gal(b1-3)GalNAc(b1-3)Gal(a1-4)Gal(b1-4)Glc
How it was run: as §1

[8] = target: Neu5Ac(a2-3)Gal(b1-3)GalNAc(b1-4)[Neu5Ac(a2-3)]Gal(b1-4)Glc
How it was run: as §1

[9] = target: Neu5Ac(a2-3)Gal(b1-3)GalNAc(b1-4)[Neu5Ac(a2-8)Neu5Ac(a2-3)]Gal(b1-4)Glc
How it was run: as §1

[10] = target: Neu5Ac(a2-3)Gal(b1-3)GalNAc6S
How it was run: as §1

[11] = target: Neu5Ac(a2-3)Gal(b1-3)GlcNAc
How it was run: as §1

[12] = target: Neu5Ac(a2-3)Gal(b1-3)GlcNAc(b1-2)Man
How it was run: as §1

[13] = target: Neu5Ac(a2-3)Gal(b1-3)GlcNAc(b1-2)Man(a1-3)[GlcNAc(b1-4)][Neu5Ac(a2-3)Gal(b1-3)GlcNAc(b1-2)Man(a1-6)]Man(b1-4)GlcNAc(b1-4)GlcNAc
How it was run: as §1

[14] = target: Neu5Ac(a2-3)Gal(b1-3)GlcNAc(b1-2)Man(a1-3)[Neu5Ac(a2-3)Gal(b1-3)GlcNAc(b1-2)Man(a1-6)]Man(b1-4)GlcNAc(b1-4)GlcNAc
How it was run: as §1

[15] = target: Neu5Ac(a2-3)Gal(b1-3)GlcNAc(b1-3)Gal(b1-3)GlcNAc
How it was run: as §1

[16] = target: Neu5Ac(a2-3)Gal(b1-3)GlcNAc(b1-3)Gal(b1-4)GlcNAc
How it was run: as §1

[17] = target: Neu5Ac(a2-3)Gal(b1-3)GlcNAc(b1-3)GalNAc
How it was run: as §1

[18] = target: Neu5Ac(a2-3)Gal(b1-3)GlcNAc(b1-4)Gal(b1-4)Glc
How it was run: as §1

[19] = target: Neu5Ac(a2-3)Gal(b1-3)GlcNAc(b1-6)GalNAc
How it was run: as §1

[20] = target: Neu5Ac(a2-3)Gal(b1-3)GlcNAc6S
How it was run: as §1

[21] = target: Neu5Ac(a2-3)Gal(b1-3)[Fuc(a1-4)]GlcNAc
How it was run: as §1

[22] = target: Neu5Ac(a2-3)Gal(b1-3)[Fuc(a1-4)]GlcNAc(b1-3)Gal(b1-3)[Fuc(a1-4)]GlcNAc
How it was run: as §1

[23] = target: Neu5Ac(a2-3)Gal(b1-3)[Fuc(a1-4)]GlcNAc(b1-3)Gal(b1-4)[Fuc(a1-3)]GlcNAc
How it was run: as §1

[24] = target: Neu5Ac(a2-3)Gal(b1-3)[GlcNAc(b1-6)]GalNAc
How it was run: as §1

[25] = target: Neu5Ac(a2-3)Gal(b1-3)[Neu5Ac(a2-6)]GalNAc
How it was run: as §1

[26] = target: Neu5Ac(a2-3)Gal(b1-3)[Neu5Ac(a2-6)]GlcNAc(b1-3)[Fuc(a1-3)[Gal(b1-4)]GlcNAc(b1-6)]Gal(b1-4)Glc
How it was run: as §1

[27] = target: Neu5Ac(a2-3)Gal(b1-3)]Neu5Ac(a2-3)Gal(b1-4)]GlcNAc
How it was run: as §1

Neu5Ac(a2-3)Gal(b1-4)Glc = target: Neu5Ac(a2-3)Gal(b1-4)Glc
How it was run: as §1

[28] = target: Neu5Ac(a2-3)Gal(b1-4)GlcNAc
How it was run: as §1

[29] = target: Neu5Ac(a2-3)Gal(b1-4)GlcNAc(b1-2)Man
How it was run: as §1

[30] = target: Neu5Ac(a2-3)Gal(b1-4)GlcNAc(b1-2)Man(a1-3)[GlcNAc(b1-4)][Neu5Ac(a2-3)Gal(b1-4)GlcNAc(b1-2)Man(a1-6)]Man(b1-4)GlcNAc(b1-4)GlcNAc
How it was run: as §1

[31] = target: Neu5Ac(a2-3)Gal(b1-4)GlcNAc(b1-2)Man(a1-3)[Neu5Ac(a2-3)Gal(b1-4)GlcNAc(b1-2)Man(a1-6)]Man(b1-4)GlcNAc(b1-4)GlcNAc
How it was run: as §1

[32] = target: Neu5Ac(a2-3)Gal(b1-4)GlcNAc(b1-2)Man(a1-3)[Neu5Ac(a2-3)Gal(b1-4)GlcNAc(b1-2)Man(a1-6)]Man(b1-4)GlcNAc(b1-4)[Fuc(a1-6)]GlcNAc
How it was run: as §1

[33] = target: Neu5Ac(a2-3)Gal(b1-4)GlcNAc(b1-2)Man(a1-3)[Neu5Ac(a2-6)Gal(b1-4)GlcNAc(b1-2)Man(a1-6)]Man(b1-4)GlcNAc(b1-4)GlcNAc
How it was run: as §1

B1: AT1G15820(2) (Arabidopsis thaliana), Q9LMQ2 (protein)
chain: MAMAVSGAVLSGLGSSFLTGGKRGATALASGVGTGAQRVGRKTLIVAAAAAQPKKSWIPAVKGGGNFLDPEWLDGSLPGDFGFDPLGLGKDPAFLKWYREAELIHGRWAMAAVLGIFVGQAWSGVAWFEAGAQPDAIAPFSFGSLLGTQLLLMGWVESKRWVDFFNPDSQSVEWATPWSKTAENFANYTGDQGYPGGRFFDPLGLAGKNRDGVYEPDFEKLERLKLAEIKHSRLAMVAMLIFYFEAGQGKTPLGALGL
glycan array binding signal (z-score) [1]: -0.08
glycan array binding signal (z-score) [2]: 0.044
glycan array binding signal (z-score) [3]: -0.356
glycan array binding signal (z-score) [4]: -0.023
glycan array binding signal (z-score) [5]: -0.001
glycan array binding signal (z-score) (Man(a1-6)Man): 0.556
glycan array binding signal (z-score) (Man(b1-4)GlcNAc): 0.001
glycan array binding signal (z-score) (MurNAc(b1-4)GlcNAc): 0.083
glycan array binding signal (z-score) (Neu5Ac(a2-3)Gal): -0.34
glycan array binding signal (z-score) [6]: -0.67
glycan array binding signal (z-score) [7]: -0.239
glycan array binding signal (z-score) [8]: -0.138
glycan array binding signal (z-score) [9]: -0.113
glycan array binding signal (z-score) [10]: -0.359
glycan array binding signal (z-score) [11]: -0.216
glycan array binding signal (z-score) [12]: -0.194
glycan array binding signal (z-score) [13]: -0.409
glycan array binding signal (z-score) [14]: -0.021
glycan array binding signal (z-score) [15]: -0.526
glycan array binding signal (z-score) [16]: -0.299
glycan array binding signal (z-score) [17]: -0.486
glycan array binding signal (z-score) [18]: -0.338
glycan array binding signal (z-score) [19]: -0.075
glycan array binding signal (z-score) [20]: -0.495
glycan array binding signal (z-score) [21]: -0.367
glycan array binding signal (z-score) [22]: 0.497
glycan array binding signal (z-score) [23]: -0.331
glycan array binding signal (z-score) [24]: -0.351
glycan array binding signal (z-score) [25]: 0.346
glycan array binding signal (z-score) [26]: 0.231
glycan array binding signal (z-score) [27]: 0.533
glycan array binding signal (z-score) (Neu5Ac(a2-3)Gal(b1-4)Glc): 0.215
glycan array binding signal (z-score) [28]: -0.087
glycan array binding signal (z-score) [29]: 0.776
glycan array binding signal (z-score) [30]: -0.433
glycan array binding signal (z-score) [31]: -0.363
glycan array binding signal (z-score) [32]: -0.659
glycan array binding signal (z-score) [33]: -0.086
